This note sets out measurements from PubChem BioAssay AID463173 (ICCB-Longwood Screening Facility, Harvard Medical School, 2010).

Out of some 52,000 compounds screened, about 1,700 (3.3%) were called active. Rule as the data show it: active = survival mostly below about 52% (no sharp cut-off); inactive = mostly above about 56%. Some of the results follow.

This assay deals with Wild type. The experiment in a line: growth inhibition of S. aureus wild type versus tarO mutant, primary screen, teichoic acid synthesis inhibitors, RN4220, OD600 (AID 463173). The note with it: S. aureus RN4220 wild type/DeltatarO growth, OD600, 18 h, active compounds read low, screened at 18.75 µg/mL (by protocol).
In the case of `Cc1ccc(C)c(Nc2nnc(-c3ccc(C)c(S(=O)(=O)N4CCN(C)CC4)c3)c3ccccc23)c1`, the survival was inactive: 71%. The figure for `CCc1ccc(NC(=O)C(=O)NCCc2csc(-c3cccc(F)c3)n2)cc1` is inactive: 89%. The same measure for `CCOc1ccc(NC(=O)CSc2oc(-c3cccs3)nc2S(=O)(=O)c2ccc(C)cc2)cc1`: inactive: 139%; for `CCn1nc(C)c2c(-c3ccccc3)cc(=O)n(C(C)C(=O)Nc3cccc(F)c3)c21` (centres undefined): inactive: 90%.

As for `Cc1ccc(C2=CC(c3ccccc3C)n3c(nc4ccccc43)N2)cc1` (centres undefined), the survival is inactive: 71%.

As to `C=CCC1Cc2ccccc2C(CC=C)N1` (centres undefined), the survival was inactive: 100%. The figure for `Cc1ccn2c(Nc3ccccc3C)c(-c3ccc(N4CCOCC4)cc3)nc2c1` is inactive: 113%; for `Cc1ccccc1CCNC(=O)c1ccc(NC(=O)N2CC(C)Sc3ccccc32)cc1` (centres undefined) it is inactive: 96%; for `O=C(COc1ccc(Cl)cc1)NCC(c1ccco1)S(=O)(=O)c1ccccc1` (centres undefined) it is inactive: 98%. The figure for `COc1ccccc1NC(=O)c1sc2nc3c(c(C(F)(F)F)c2c1N)CN(C(C)=O)CC3` is inactive: 97%. The figure for `Cc1nn(-c2ccc(N3CCOCC3)nn2)c(C)c1CCC(=O)NCc1ccccc1` is inactive: 86%; for `Cc1cc(C)c(NC(=O)CSc2n[nH]c(-c3ccccc3Cl)n2)c(C)c1` it is inactive: 64%; for `COC(=O)C1CC(C)=CC(C)C1C(=O)O` (centres undefined) it is inactive: 100%. In the case of `COc1cc(C2C(=O)N(C3CCCCCC3)CC(=O)N2Cc2ccccc2)ccc1OC(C)C` (centres undefined), the survival was inactive: 79%. The figure for `C=C(C)Cn1c(=O)c2c(nc3n2CCN3c2cc(C)cc(C)c2)n(C)c1=O` is inactive: 83%; for `COc1ccc(N2CCN(C(=O)C3CCN(Cc4nc(-c5ccc(Cl)cc5)oc4C)CC3)CC2)cc1` it is inactive: 82%. In the case of `CN(C)CCNC(=O)CN1N=C(c2ccccc2)CCC1=O`, the survival was inactive: 159%. The same measure for `COC(=O)c1ccc(NC(=O)CN(Cc2ccccc2)S(=O)(=O)c2ccc(C)cc2)cc1`: inactive: 57%; for `O=C(O)c1noc2c1CCCC2`: inactive: 92%; for `Cc1cc2ncn(S(=O)(=O)c3ccc(S(=O)(=O)NC4CCCCC4)cc3)c2cc1C`: inactive: 100%. The figure for `COc1ccc(NC(=O)c2cnc(Nc3ccc(C)c(Cl)c3)c3ccccc23)c(OC)c1` is inactive: 79%; for `CCCSc1ncc(Cl)c(C(=O)Nc2ccc(S(=O)(=O)N3CCC(C)CC3)cc2)n1` it is inactive: 93%. The figure for `CCOc1ccc(NC(=O)Cn2cc(C(=O)c3ccc(CC)cc3)c(=O)c3cc4c(cc32)OCO4)cc1` is inactive: 77%; for `Cc1ccc(Cl)cc1N1CCN(C(=O)c2cnn(C(C)(C)C)c2C2CCN(C(=O)OC(C)(C)C)CC2)CC1` it is inactive: 75%. With `CCCC(=O)N1CCc2cc(OC)c(OC)cc2C1COc1ccc2c(C)cc(=O)oc2c1` (centres undefined), the survival was inactive: 78%. The same measure for `COc1ccc2c(c1)CC(C(=O)NCCN1CCN(c3ccccc3F)CC1)CO2` (centres undefined): inactive: 60%. The figure for `COc1ccc(CNc2nc(-c3ccc(OC)cc3)cc(C(F)(F)F)n2)cc1` is active: -5%. The figure for `CCc1ccc(NC(=O)CN2CCN(C3CCCCC3)C(=O)C2=O)cc1` is inactive: 77%; for `CCC(Sc1ncc(S(=O)(=O)c2ccc(C)cc2)c(=O)[nH]1)C(=O)Nc1cc(C)ccc1C` (centres undefined) it is inactive: 124%. With `O=C(Nc1c(C(=O)c2ccc(Cl)cc2)oc2ccccc12)c1cc(=O)c2ccccc2o1`, the survival is inactive: 113%. The same measure for `O=C(Cn1cc(SCc2ccc(Br)cc2)c2ccccc21)N1CCCCC1`: inactive: 85%; for `Cc1ccc(/C=C(\C#N)C(=O)Nc2ccc(Br)cc2)o1`: inactive: 96%; for `Cn1nnnc1SCCCNCc1cccc(OCc2ccccc2F)c1`: inactive: 93%. Consider `COc1ccc(CCN2C(=O)NC(NC(=O)c3ccccc3OC)(C(F)(F)F)C2=O)cc1OC` (centres undefined), for which the survival was inactive: 67%. The figure for `CCc1nc2ccc(C(=O)NCc3ccc(N(C)C)cc3)cc2nc1CC` is inactive: 95%; for `Cc1ccc2oc(=O)c(S(=O)(=O)c3ccc(F)cc3)cc2c1` it is inactive: 76%; for `COc1ccc(NC(=O)c2ccco2)cc1NC(=O)c1ccc(C)c(C)c1` it is inactive: 69%. The figure for `CCN(C(=O)CSc1nc2ccccc2n1Cc1ccc(C(=O)OC)cc1)c1ccccc1` is inactive: 76%. The figure for `CC(C)NC(=O)C1CC(c2ccc(Cl)cc2)=NO1` (centres undefined) is inactive: 110%; for `CCn1c(SCC(=O)NC2CCCC2)nnc1C(C)C` it is inactive: 104%.

As to `Cc1cccc(C)c1Nc1c(-c2ccc(N3CCOCC3)cc2)nc2ncccn12`, the survival is inactive: 75%.

For the compound `Cc1ccc(-c2cc(C(F)(F)F)n3nc(-c4cccc(Br)c4)cc3n2)cc1`, the survival is inactive: 68%. As for `CC(=O)Nc1ccc(NC(=O)CN2C(=O)CC(c3ccco3)Sc3ccccc32)cc1` (centres undefined), the survival is inactive: 99%.

Consider `CCc1cccc2c(C#N)cn(CC(=O)NCCOC)c12`, for which the survival is inactive: 100%.

For the compound `COc1ccc(N2CCN(C(=O)CN3CCSc4ccccc43)CC2)cc1`, the survival is inactive: 51%. The same measure for `CCn1c(=O)cc(OCC(=O)N2CCN(c3ccc(C(C)=O)cc3)CC2)c2ccccc21`: inactive: 92%. The figure for `CN(C(=O)c1c[nH]c2ccc(S(=O)(=O)Nc3cccc(C(F)(F)F)c3)cc2c1=O)C1CCCCC1` is inactive: 71%; for `O=C(Cn1nc(Cc2ccncc2)c2ccccc2c1=O)Nc1cccc(C(F)(F)F)c1` it is inactive: 73%. With `CNC(=O)c1c(NC(=O)c2cc(=O)c3cc(C)c(C)cc3o2)sc2c1CCCC2`, the survival was inactive: 91%. The same measure for `CCN(CC)CCN(C(=O)c1ccco1)c1nc2c(C)c(C)ccc2s1`: inactive: 73%; for `Cc1ccc(CSCCC(=O)N2CCN(c3ccc(F)cc3)CC2)cc1`: inactive: 73%; for `COc1ccccc1CNC(=O)Cn1c(-c2ccc(F)cc2)cc(C(C)=O)c1C`: inactive: 78%. The figure for `Cc1c(Cl)cccc1N1CCn2c1nc1c2c(=O)n(CC(=O)O)c(=O)n1C` is inactive: 72%. The figure for `COc1ccc(Cl)cc1NC(=O)Nc1c[nH]c(=O)[nH]c1=O` is inactive: 83%. For `CCCCNC(=O)CC1Nc2cc(C)c(C)cc2NC1=O` (centres undefined), the survival is inactive: 74%. The figure for `COc1ccccc1NC(=O)c1nn(C)c2c1CS(=O)(=O)c1ccccc1-2` is inactive: 83%; for `CN(C)S(=O)(=O)c1ccc(C(=O)NCCSc2c(-c3ccc(Br)cc3)[nH]c3ccccc23)cc1` it is inactive: 88%; for `Cc1ccc(NC(=O)C2CCCN(c3ncnc4onc(C)c34)C2)c(Cl)c1` (centres undefined) it is inactive: 71%. The same measure for `O=C(CCSCc1ccc(Cl)cc1)NCCc1ccccc1`: active: -6%; for `O=C(NCCc1ccc(Cl)cc1)c1nnc(Cc2ccc(F)cc2)o1`: inactive: 99%.

With `O=C(Nc1ccc(-c2nc3ccccc3o2)c(O)c1)c1cc(Cl)ccc1Cl`, the survival is inactive: 67%. The same measure for `COc1cc(OC)cc(C(=O)Nc2ccc3nc4c(c(Nc5ccc(OC)c(OC)c5)c3c2)CCCC4)c1`: inactive: 134%; for `CCCCc1ccc(Nc2cc(C)nc(-n3nc(C)cc3C)n2)cc1`: inactive: 55%; for `CC1CNc2ccccc2NC1=O` (centres undefined): inactive: 102%. The figure for `CCN(C(=O)CCS(=O)(=O)c1ccc2c(c1)CCN2C(C)=O)c1cccc(C(F)(F)F)c1` is inactive: 81%; for `O=C(NCC(c1cccnc1)N1CCc2ccccc2C1)C(=O)Nc1ccccc1F` (centres undefined) it is inactive: 95%; for `CC1Cc2cc(S(=O)(=O)CCC(=O)Nc3ccc(F)cc3)ccc2N1C(=O)C1CC1` (centres undefined) it is inactive: 75%. The same measure for `O=C(/C=C\c1ccc2c(c1)OCO2)NC1CC(=O)N(c2ccccc2)C1` (centres undefined): inactive: 159%.

Turning to `CSc1ccc(CNC(=O)Cn2c(-c3cccs3)cc3cc(F)ccc32)cc1`, the survival is inactive: 70%.

As for `CCN1CCc2c(sc(NC(=O)c3ccc(S(=O)(=O)N(C)C4CCCCC4)cc3)c2C(N)=O)C1`, the survival is inactive: 69%.

Consider `N#CSC1CC(=O)N(c2ccc(F)cc2)C1=O` (centres undefined), for which the survival was inactive: 108%.

On to `Cc1ccccc1-c1nnc(SCC(=O)N(C)c2ccccc2)o1`, for which the survival is inactive: 79%.

`Clc1cccc(CNNc2nc(N3CCCCC3)nc(N3CCCCC3)n2)c1`: the survival was inactive: 101%.

Take `COc1cc(C(=O)N2CCNC(=O)C2CC(=O)Nc2ccc(C)c(C)c2)cc(OC)c1OC` (centres undefined): the survival is inactive: 66%.

For the compound `CCN(CC)C(=O)C1CCN(Cc2cccc(OC)c2OC)CC1`, the survival is inactive: 108%. The same measure for `CCCCNc1nc2c(-c3cccc(C)c3)nnn2c2ccccc12`: inactive: 100%; for `Cc1ccc(/C=C/c2onc(C)c2S(=O)(=O)N2CCC(C(=O)Nc3ccc(OC(F)(F)F)cc3)CC2)cc1`: inactive: 140%. The figure for `Cc1cccc(OCC(=O)Nc2cccc(C(=O)OCc3cc(=O)n4nc(C(C)C)sc4n3)c2)c1` is inactive: 68%. Regarding `Cc1ccc(S(=O)(=O)Nc2cc3c(C(=O)OCc4ccccc4)c(C)oc3c3ccccc23)c(C)c1`, the survival was inactive: 73%. The same measure for `CCc1ccc2[nH]c(=O)c(CN(Cc3ccco3)C(=O)Nc3ccccc3)cc2c1`: inactive: 122%; for `COc1ccc2c(c1)c1c(c(=O)n(-c3ccccc3C)c(=O)n1CC(N)=O)n2C`: inactive: 82%.

In the case of `CCCN(CCC)C(=O)Cn1c(=O)n(CCCCCC(=O)Nc2ccccc2)c(=O)c2sccc21`, the survival is inactive: 98%. With `Cc1nnc(C)n1/N=C/C=C/c1ccccc1`, the survival is inactive: 97%.

Consider `COC(=O)c1ccc(NC(=O)Cn2ccn3nc(-c4ccc(OC)cc4)cc3c2=O)cc1`, for which the survival is inactive: 70%. As for `Cc1ccc(CNC(=O)CCc2c(C)nc3c(-c4ccc(F)cc4)c(C)nn3c2C)cc1`, the survival was inactive: 82%.

`O=C(/C=C/c1cccs1)NC1CCS(=O)(=O)C1` (centres undefined): the survival was inactive: 103%. Take `CCc1sc(Nc2cccc(Cl)c2)nc1-c1cc2cccc(OC)c2oc1=O`: the survival was inactive: 72%. For the compound `COc1ccc(NC(=O)CN2C(=O)C(C)(C)c3cc(S(=O)(=O)N4CCCCC4)ccc32)cc1Cl`, the survival is inactive: 60%. For `Cc1nn2c3c(cnc2c1-c1ccc(Cl)cc1)C(=O)CC(c1ccc(C(C)C)cc1)C3` (centres undefined), the survival was inactive: 78%.
